Laboratory results published in PubChem BioAssay AID504706 (National Center for Advancing Translational Sciences (NCATS), 2011).
The whole screen tested about 320,000 compounds, of which about 200 (0.062%) were called active. The shares of active, inactive and inconclusive entries below differ from those in the screen. The call rests on the fitted dose curve; in most records, active means well fitted activation curve with a large enough effect; inconclusive means small, poorly fitted or top-dose-only effect; inactive means no such curve, though single readings can be large or run the other way. Potencies of inconclusive entries are left out as doubtful fits.

assay: qHTS assay for re-activators of p53 using a Luc reporter; details: H1299 p53-A138V BP100-luciferase reporter, luminescence, 24 h; series mostly up to 92.2 µM; activity change, positive = activation: at the top concentration; further: nearly all actives have a fitted effect of over 45% in size; on activity change, positive = activation: % of control where 0% means no effect
In short: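 H1299 (p53-null), stable ts p53-A138V + BP100-Luc; 1000 cells/well, Opti-MEM/10% FBS; cpd 4 pt, 1:5; 24 h, 37 deg C, 5% CO2; detection reagent 10 min RT; luminescence.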
Potency means the concentration at half of the fitted maximal effect; tags describe the fitted curve by direction and shape.

Q: For `CCN(c1ccccc1)S(=O)(=O)c1ccc(Oc2ccc(-n3ccnc3)cc2)nc1`, which Potency is on record?
A: Its Potency is inconclusive [activator, single point].

Q: Which Potency does the source give for `CCC(C)NC(=O)c1cc(-c2ccccc2O)on1` (configuration not stated) here?
A: Its Potency is inconclusive [activator, partial curve, poor fit].

Q: With `CC12CN3CC(C)(CN(C1)C3c1ccccc1Cl)C2O` (configuration not stated) as the molecule, how does the Potency read?
A: The Potency was inconclusive [activator, partial curve, poor fit].

Q: Which Potency does the source give for `COc1ccc(CN2CCn3ncc(C(=O)Nc4cccc(C)c4)c3C2=O)cc1` here?
A: Its Potency is inconclusive [activator, partial curve, poor fit].

Q: With `Cc1ccc(OCc2ccc(-c3ccccc3)cc2)c([N+](=O)[O-])n1` as the molecule, how does the “activity change, positive = activation” value read?
A: Its value is inactive: 9.57%.

Q: Which Potency does the source give for `CC(=O)c1ccc(NC(=S)NC(=O)CC(C)C)cc1` here?
A: The Potency was inconclusive [activator, partial curve, poor fit].

Q: With `CCc1ccc2[nH]c(C(=O)Nc3ccc(Br)c(C)n3)cc2c1` as the molecule, how does the Potency read?
A: Its Potency is inconclusive [activator, partial curve, poor fit].

Q: With `O=C(N/N=C/c1ccccc1F)c1csc2c1CCCC2` as the molecule, how does the Potency read?
A: The Potency was inconclusive [activator, full curve, poor fit].

Q: With `COc1ccccc1CC(=O)NCc1ccc2c(c1)OCO2` as the molecule, how does the Potency read?
A: Its Potency is inconclusive [activator, full curve, poor fit].

Q: Which “activity change, positive = activation” value does the source give for `Cn1nc(C(=O)OCC(=O)Nc2cccc(S(=O)(=O)N3CCCC3)c2)c2ccccc2c1=O` here?
A: Its value is inactive: -0.933%.

Q: With `Cc1ccc(C)c(OCC(O)CN2C(C)CCCC2C)c1` (configuration not stated) as the molecule, how does the Potency read?
A: The Potency was inconclusive [activator, partial curve, poor fit].

Q: Which “activity change, positive = activation” value does the source give for `O=C(CNc1cccc(S(=O)(=O)N2CCOCC2)c1)Nc1cccc(Br)c1` here?
A: Its value is inactive: -7.32%.

Q: For `Cc1cccc(-n2c(=S)[nH]c3c(oc4ccccc43)c2=O)c1`, which “activity change, positive = activation” value is on record?
A: Its value is inactive: 11.7%.

Q: For `O=C(CSc1n[nH]c(-c2ccccc2)n1)Nc1ncccn1`, which “activity change, positive = activation” value is on record?
A: The value was inactive: 3.43%.

Q: Which “activity change, positive = activation” value does the source give for `Cc1cc(Cl)ccc1NC(=S)NCCCO` here?
A: The value was inactive: -4.06%.

Q: For `COCCCNC(=O)c1ccc2nc3ccccc3c(=O)n2c1`, which Potency is on record?
A: Its Potency is inconclusive [activator, single point].

Q: Which Potency does the source give for `O=C(Nc1ccc2nn(-c3ccccc3)nc2c1)c1ccc(Br)o1` here?
A: The Potency was inconclusive [activator, partial curve, poor fit].

Q: Which “activity change, positive = activation” value does the source give for `NC(=O)C1CCN(c2nc(-c3ccc4ccccc4c3)cs2)CC1` here?
A: The value was inactive: 7.43%.

Q: For `C=CCNC(=O)COc1ccc(S(=O)(=O)Nc2ccc(OCC)cc2)cc1`, which “activity change, positive = activation” value is on record?
A: Its value is inactive: -9.31%.

Q: Which Potency does the source give for `CCC(=O)n1nc(-c2ccc(OC)cc2)nc1SC` here?
A: The Potency was inconclusive [activator, full curve, poor fit].

Q: With `O=C(O)CCSC1CC(=O)N(c2ccccc2)C1=O` (configuration not stated) as the molecule, how does the “activity change, positive = activation” value read?
A: The value was inactive: -2.12%.

Q: Which Potency does the source give for `Cc1ccc(C)c(NC(=O)C(C)N2C(=O)c3ccccc3C2=O)c1` (configuration not stated) here?
A: The Potency was inconclusive [activator, full curve, poor fit].

Q: With `CCOC(=O)c1ccc(S(=O)(=O)N2CCN(C(=O)c3ccccn3)CC2)cc1` as the molecule, how does the “activity change, positive = activation” value read?
A: The value was inactive: 4.37%.

Q: For `CCn1c(SCC(=O)N/N=C/c2ccc(OC)c(OC)c2)nc2ccccc21`, which “activity change, positive = activation” value is on record?
A: Its value is inactive: 1.78%.

Q: With `Cc1ccc(/C=c2/sc3n(c2=O)CCCN=3)o1` as the molecule, how does the Potency read?
A: Its Potency is inconclusive [activator, partial curve, poor fit].

Q: For `Cc1ccc2nc(-c3cc(-c4ccccc4)no3)cn2c1`, which Potency is on record?
A: The Potency was inconclusive [activator, full curve, poor fit].

Q: For `CC(C)(C)c1ccc(C(=O)Nc2ccc(C(=O)N3CCOCC3)cc2)cc1`, which “activity change, positive = activation” value is on record?
A: Its value is inactive: -15.2%.

Q: For `COc1ccc(/C=N/NC(=O)c2cccnc2)cc1CSc1nc2ccccc2s1`, which Potency is on record?
A: Its Potency is inconclusive [activator, partial curve, poor fit].

Q: With `Cc1cc(C(=O)N/N=C/c2cccs2)no1` as the molecule, how does the Potency read?
A: The Potency was inconclusive [activator, partial curve, poor fit].

Q: Which Potency does the source give for `COc1ccccc1NC(=O)CCCCC(=O)Nc1ccccc1OC` here?
A: Its Potency is inconclusive [activator, single point].

Q: With `Clc1ccc(-c2nnc(-c3ccccc3Cl)o2)cc1` as the molecule, how does the Potency read?
A: Its Potency is inconclusive [activator, partial curve, poor fit].

Q: With `O=C(/C=C/c1ccc(Cl)cc1Cl)N1CCc2ccccc21` as the molecule, how does the Potency read?
A: Its Potency is inconclusive [activator, partial curve, poor fit].

Q: For `Cc1cccnc1NC(=S)NC(=O)c1cncc(Br)c1`, which Potency is on record?
A: Its Potency is inconclusive [activator, partial curve, poor fit].

Q: Which “activity change, positive = activation” value does the source give for `COc1ccc(/C=N\NC(=O)c2ccccc2Br)cc1COc1ccc(F)cc1` here?
A: Its value is inactive: -4.38%.

Q: With `CCOc1ccc2nc(COC(=O)c3cccs3)c(C(=O)c3ccccc3)[n+]([O-])c2c1` as the molecule, how does the Potency read?
A: Its Potency is inconclusive [activator, full curve, poor fit].

Q: For `O=C(N/N=C/c1sc2ccccc2c1O)c1cccc2ccccc12`, which Potency is on record?
A: The Potency was inconclusive [activator, single point].

Q: Which Potency does the source give for `CC(C)c1ccccc1NC(=S)NCC1(N(C)C)CCCCC1` here?
A: The Potency was inconclusive [activator, full curve, poor fit].

Q: Which Potency does the source give for `CCCC#Cc1ccc2c(c1)COc1c3ccccc3nn1-2` here?
A: The Potency was inconclusive [activator, partial curve, poor fit].

Q: Which Potency does the source give for `Cc1ccc(C)c(NC(=S)c2ccccn2)c1` here?
A: Its Potency is inconclusive [activator, full curve, poor fit].

Q: For `O=C(N/C=C/c1ccccc1)c1ccccc1`, which Potency is on record?
A: Its Potency is inconclusive [activator, partial curve, poor fit].

Q: For `O=S(=O)(CCSc1ccccn1)c1nc2ccccc2s1`, which Potency is on record?
A: Its Potency is inconclusive [activator, single point].

Q: With `Cc1ccc(Nc2nc(CSc3nnc(-c4ccc(F)cc4)n3C)cs2)cc1` as the molecule, how does the Potency read?
A: Its Potency is inconclusive [activator, partial curve, poor fit].

Q: With `O=C(COc1ccccc1F)Nc1nc(-c2ccccn2)cs1` as the molecule, how does the Potency read?
A: The Potency was inconclusive [activator, single point].

Q: Which “activity change, positive = activation” value does the source give for `CC1=NN(C(=O)c2csc(C)c2)C(O)(C(F)(F)F)C1` (configuration not stated) here?
A: Its value is inactive: -0.26%.

Q: Which Potency does the source give for `CCCN1CNC(=S)N(c2ccc(C(=O)OCC)cc2)C1` here?
A: The Potency was inconclusive [activator, partial curve, poor fit].

Q: For `CCOc1ccc(/C=N/NC(=O)c2[nH]ncc2Br)c(O)c1`, which Potency is on record?
A: The Potency was inconclusive [activator, partial curve, poor fit].

Q: For `CCN(CC)c1ccc(NC(=O)c2ccco2)cc1`, which Potency is on record?
A: The Potency was inconclusive [activator, partial curve, poor fit].

Q: For `COc1ccccc1C1/C(=C(\O)c2ccc3c(c2)OCCO3)C(=O)C(=O)N1CCCn1ccnc1` (configuration not stated), which Potency is on record?
A: The Potency was inconclusive [activator, partial curve, poor fit].

Q: With `CC(=O)Oc1ccccc1-c1nc(/C=C/c2ccccc2)no1` as the molecule, how does the Potency read?
A: Its Potency is inconclusive [activator, partial curve, poor fit].

Q: Which Potency does the source give for `COc1ccc2nc(NC(=O)CSC3=NCCS3)sc2c1` here?
A: The Potency was inconclusive [activator, partial curve, poor fit].

Q: With `Cc1ccc2nc(-c3cccnc3SCC(=O)N3c4ccccc4CC3C)[nH]c2c1` (configuration not stated) as the molecule, how does the Potency read?
A: Its Potency is inconclusive [activator, partial curve, poor fit].

Q: With `Cc1ccccc1OCC1Cc2c(nc(N)c(C#N)c2N)O1` (configuration not stated) as the molecule, how does the Potency read?
A: Its Potency is inconclusive [activator, partial curve, poor fit].

Q: For `CNC(=S)SCCOc1ccccc1C`, which Potency is on record?
A: Its Potency is inconclusive [activator, single point].

Q: With `CC1CCCC(C)N1/N=C/c1ccc(O)c(O)c1` (configuration not stated) as the molecule, how does the Potency read?
A: Its Potency is inconclusive [activator, single point].

Q: With `Cc1cc(Cl)c(S(=O)(=O)N/N=C/c2ccc3c(c2)OCO3)c(Cl)c1` as the molecule, how does the “activity change, positive = activation” value read?
A: Its value is inactive: 11.5%.

Q: With `O=C(Nc1ccc(Oc2ccccc2)nc1)C1CCCCN1Cc1ccc(O)cc1` (configuration not stated) as the molecule, how does the Potency read?
A: Its Potency is inconclusive [activator, single point].

Q: With `CCC(=O)N1CCN(c2nc3ccc(Br)cc3s2)CC1` as the molecule, how does the Potency read?
A: The Potency was inconclusive [activator, partial curve, poor fit].

Q: Which Potency does the source give for `Cc1cc(-c2nnc(SCC(=O)Nc3ccccc3C(F)(F)F)o2)c(C)n1-c1ccccc1` here?
A: The Potency was inconclusive [activator, partial curve, poor fit].

Q: Which Potency does the source give for `CC(=O)c1ccc2c(c1)Cc1cc(C(C)=O)ccc1-2` here?
A: Its Potency is inconclusive [activator, partial curve, poor fit].

Q: For `COCCN(Cc1cn(C)nc1-c1ccccc1F)C(C)C`, which “activity change, positive = activation” value is on record?
A: Its value is inactive: 1.63%.

Q: For `CC(=O)c1ccc(NC(=O)Nc2ccc([N+](=O)[O-])cc2)cc1`, which Potency is on record?
A: The Potency was inconclusive [activator, full curve, poor fit].

Q: With `COc1ccccc1NC(=O)c1ccc(C)s1` as the molecule, how does the Potency read?
A: Its Potency is inconclusive [activator, single point].

Q: For `O=C1C=C(c2ccc(C(=O)O)cc2)C[C@@H](c2ccc(Cl)cc2)C1`, which Potency is on record?
A: The Potency was inconclusive [activator, single point].

Q: Which Potency does the source give for `CCOC(=O)Cn1nc(NC(=O)c2ccc(C(=O)OC)cc2)cc1C` here?
A: Its Potency is inconclusive [activator, partial curve, poor fit].

Q: With `CCOc1c2ccc(C(=O)NCCc3cccs3)cc2nn1CC` as the molecule, how does the “activity change, positive = activation” value read?
A: Its value is inactive: 12.6%.

Q: For `CCCN1CCN(CC(=O)Nc2nc3ccccc3s2)CC1`, which Potency is on record?
A: Its Potency is inconclusive [activator, single point].

Q: For `COc1cccc(/C=N/NC(=O)CN2CC(c3ccccc3)CC2=O)c1O` (configuration not stated), which Potency is on record?
A: Its Potency is inconclusive [activator, partial curve, poor fit].
